Reference: ChEMBL document CHEMBL1156829
In all, about 5,400 compounds were measured (“IFI”: median about 2, highest 2% from about 22 on). Some of the results follow.

Test: NOVARTIS: Inhibition Frequency Index (IFI) - the number of HTS assays where a compound showed > 50% inhibition/induction, expressed as a percentage of the number of assays in which the compound was tested.
Assay type: functional

SMILES	IFI [%]
CC(C)(C)CC(C)(C)Nc1c(-c2ccccc2OC(=O)C2CCC2)nc2ccccn12	3.85
CC(C)CC1C(c2ccc(Cl)cc2)C(C(=O)c2ccccc2)C2(C(=O)Nc3ccc(Br)cc32)N1C(=O)NCc1ccccc1 (stereo not given)	3.64
COC(=O)C1=C(C)N(C)C(C)=C(C(=O)OC)C1c1ccc([N+](=O)[O-])cc1	0
CCOc1ccc(S(=O)(=O)Oc2cccc3cccnc23)cc1	0
Cn1nc(C(=O)NCc2ccc(F)cc2)c2c1CCC(N1CCC(CO)CC1)C2 (stereo not given)	1.25
Cc1c(-c2ccccc2)c2ccccc2n1CCc1ccc(C)[n+](C)c1	1.22
O=C(COc1ccccc1)Nc1nccs1	7.48
CN(C)CCCNc1ncc(C(=O)NCc2ccccc2)c(NCCc2ccccc2)n1	3
CCc1cc2c(Sc3nnc(N)s3)ncnc2s1	3.08
CN(C)c1ccc(N=Cc2ccc(N3CCOCC3)cc2)cc1	0
Cc1cc(N2CCCCC2)nc(NCc2ccccc2)n1	2.35
CCCCCOc1ccc(/C=C2/N=C(c3ccccc3)OC2=O)cc1	0
O=C(O)CCCCCNc1ncnc2sc3c(c12)CCCC3	0.741
Cc1cc2c(cc1C)NC(c1ccccc1F)C1=C(CC(C)(C)CC1=O)N2 (stereo not given)	2.56
CCOc1ccc2nc(C)c(CN(C)Cc3ccccc3)c(O)c2c1	0
Cc1cc(C)cc(NC(=O)c2cc(-c3ccc(Cl)cc3)nc3ccccc23)c1	2.7
CCC1CCCCN1C(=O)C1CC(=O)N(c2ccc(OC)cc2)C1c1ccc(OC)cc1 (stereo not given)	0
CCOC(=O)C1=C(C)N/C(=C\c2cc(C)n(-c3ccc(C)cc3C)c2C)C1=O	0
CCc1nnc2sc(-c3ccc(NC(=O)c4ccc(Br)o4)cc3)nn12	7.69
CCOC(=O)c1c(NC(=O)c2ccc(S(=O)(=O)N(C)c3ccccc3)cc2)sc2c1CCN(C(=O)OCC)C2	0
COc1ccc(C2=C/C(=C/c3cccc(OC)c3OC)C(=O)O2)cc1OC	0
CCOC(=O)c1cnc2ccc(OCC)cc2c1NCC1CCCN1CC (stereo not given)	0
CCCC(=O)N1c2ccc(OC)cc2-c2c(ssc2=S)C1(C)C	0
COc1ccc(C(OCCS(=O)(=O)CCO)(c2ccccc2)c2ccc(OC)cc2)cc1	0.746
Cc1ccccc1OCCSc1nc2ccc(NC(=O)c3cccs3)cc2s1	0

SMILES	IFI [%]
Cc1c(C)c2c(c(C)c1O)CC[C@](C)(CN1CCN(c3cc(N4CCCC4)nc(N4CCCC4)n3)CC1)O2	5.2
O=C(Oc1ccc(N2C(=O)c3ccc([N+](=O)[O-])cc3C2=O)cc1)c1ccco1	0
CC(=O)N(C1=C(N2CCOCC2)C(=O)c2ccccc2C1=O)c1ccc(F)cc1	24.7
Cc1ccccc1NC(=O)N1CCN(C(=O)c2nc(-c3ccccc3)nc(C)c2C(=O)OC(C)C)CC1C (stereo not given)	1.89
Cc1cc(Nc2ccc(Cl)c(Cl)c2)n2nc(C)nc2n1	0
COc1ccc(C2CC(=O)C3=C(C2)NC(C)=C(C(=O)OC2CCCCC2)C3c2ccc(F)cc2)cc1OC (stereo not given)	4.71
Cc1sc2nc3c4ccccc4c(NCCCN(C)C)nn3c(=O)c2c1C	12.5
Cc1ccc(NC(=O)c2sc3nc4c(c(-c5cccs5)c3c2N)CCCC4)cc1	2.41
C=C(c1ccccc1)[n+]1ccc(/C=C/c2ccccc2O)cc1	5.46
CCC(COC)NC(=O)c1cn(C2CCCCC2)cc(C(=O)NC(C)(C)C)c1=O (stereo not given)	1.71
CCN1CCN(c2cc(C)c3cc(NC(=O)/C=C/c4cccc(Cl)c4)ccc3n2)CC1	0
c1ccc(C2CC(C3CC(c4ccccc4)OC(c4ccccc4)C3)CC(c3ccccc3)O2)cc1 (stereo not given)	13.3
CC(C)(C)NC(=O)C(C1CC1)N1C(=O)c2cc(O)ccc2NC(=O)[C@@H]1CCCCN (stereo not given in full)	0.826
CC(C)(C)c1ccc2c(c1)CN(C1CCCCC1)CO2	1.82
CCCCCCOc1ccc(C(C)=NNC2=NCCN2)cc1[N+](=O)[O-]	0
c1ccc(C2=Nc3ccccc3C(c3ccccc3)(c3ccccc3)N2)cc1	0
COc1cccc(-c2cc(N=C(NCc3ccco3)SC)n[nH]2)c1	0
O=c1ccc2cc(Cl)c(O)c(Cl)c2o1	7.14
COc1ccc(-c2cc3c(nn2)-c2ccccc2C3=O)cc1	8.05
C[n+]1cc(-c2ccc3cccc([N+](=O)[O-])c3n2)cc2ccccc21	15.4
NS(=O)(=O)c1ccc(CCNC(=O)/C=C/c2ccc3c(c2)OCO3)cc1	0
CCNC(=O)NCCSc1nc(-c2ccccc2)c(-c2ccccc2)n1CC	0
CNc1nc(Cl)nc(Nc2ccccc2)n1	3.23
CCC(c1nc2ccccc2c(=O)n1-c1ccc(F)cc1)N(CCc1ccccc1)C(=O)CCc1ccccc1 (stereo not given)	3.16
COc1ccc(CCNC(=O)c2cc(S(=O)(=O)N3CCC4(CC3)OCCO4)ccc2F)cc1OC	2.33

SMILES	IFI [%]
Cc1cc(C)n(-c2ccc(NC(=O)C3CCN(Cc4cc(C)c(C)o4)CC3)cc2)n1	0
Fc1ccc(N2CCN(c3ncnc4c3cnn4-c3ccccc3)CC2)cc1	0
O=C(NCCc1nc(-c2cccnc2)n[nH]1)C12CC3CC(CC(C3)C1)C2	0
O=C(C1CC1)n1cc(C(=O)C(F)(F)F)c2ccccc21	1.54
CN1CCC(N2CCC(Oc3cccc(C(=O)NCCC4=CCCCC4)c3)CC2)CC1	7.69
CCc1ccc(C(=O)Oc2ccccc2-c2nc3ccccn3c2NC(C)(C)CC(C)(C)C)cc1	5.66
COc1ccc(C(C)=O)cc1N1C(=O)C2C(C1=O)C1(c3ccccc3)C(=O)C2(c2ccccc2)C(c2ccc(C)cc2)=C1c1ccc(C)cc1 (stereo not given)	0
O=C(CN1CCCC1C(c1ccccc1)c1ccccc1)N1CCSCC1 (stereo not given)	0.962
CCOc1ccc(N2C(N)=NC(N)=NC2(C)C)cc1	0
COc1ccc(Nc2nc(NN=Cc3cccc(F)c3)nc(Nc3ccc([N+](=O)[O-])cc3)n2)cc1	3.95
O=C(CN1CCCC1)Nc1nc(-c2ccc3c(c2)CCN3S(=O)(=O)c2ccccc2)cs1	5.26
O=C1NC(=Nc2ccccc2)/C(=C/c2ccc(O)cc2)S1	8.33
CCCCCCN(C(=O)CCc1ccccc1)C(CC)c1nc2ccccc2c(=O)n1-c1ccc(Cl)cc1 (stereo not given)	2.78
CN(CCCNc1ccnc2cc(Cl)ccc12)C(=O)c1cccc(F)c1	3.77
Cn1c(C(OCC(=O)N2CCN(Cc3ccccc3)CC2)c2cccnc2)cc2ccccc21 (stereo not given)	5.83
NNc1nc(NCc2ccccc2)nc(N2CCOCC2)n1	3.08
Cc1ccc2[nH]c3c(NCCN(C(C)C)C(C)C)ncnc3c2c1	5.13
O=C(CCCc1nc(-c2ccccc2)no1)NCc1cccnc1	0
CCC[n+]1cccc2ccc3cccnc3c21	1.59
CC(C)N(CC(=O)Nc1cc(C(C)(C)C)nn1-c1ccc(Cl)cc1)C(=O)c1cccc2ccccc12	0.98
CC(NC(=O)Cc1ccc(F)cc1)C(c1cccs1)N1CCOCC1 (stereo not given)	2
CCOc1ccccc1NC(=O)Nc1ccc2nc(N3CCN(C)CC3)cc(C)c2c1	0
Cc1c[nH]c(CCNCc2ccc(OCC(O)CN(C)Cc3ccccc3)cc2)n1 (stereo not given)	0
COc1ccc(C2CC(=O)C3=C(C2)NC(C)=C(C(=O)OC(C)C)C3c2cccc(C)c2)cc1OC (stereo not given)	6.02
COc1cccc(N2CCN(CCNCCc3ccccc3)[C@@H](Cc3ccc(O)cc3)C2)c1	2.47

SMILES	IFI [%]
CCOC(=O)c1c(NC(=O)c2ccc([N+](=O)[O-])cc2[N+](=O)[O-])sc2c1CCCC2	0
CCc1ccc(C(=O)N2CCCn3cccc3C2c2ccc(C(C)(C)C)cc2)cc1 (stereo not given)	7.53
CCCC(C(=O)OCC)C(C)=NNc1ccccc1[N+](=O)[O-] (stereo not given)	0
COC(=O)c1c(S(=O)(=O)NCCc2ccccc2)sc2c1CCN(Cc1cccnc1)C2	1.71
CCCCCc1ccc(C(=O)NCCCCNc2ccnc3cc(Cl)ccc23)cc1	3.16
CCOC(=O)C1=C(C)NC2=C(C(=O)C(C(=O)OCC)C(c3ccccc3OC)C2)C1c1ccc(OC)c(OC)c1 (stereo not given)	3.49
CC1=C(CCN(CCCN(C)C)CCCN(C)C)C(C)(C)CCC1	3.94
COc1cccc(NC(=O)c2ccc(NCCCC3CCCCCC3)c([N+](=O)[O-])c2)c1	0
Clc1ccccc1C[n+]1cc(-c2ccccc2)n2c1CCC2	4.76
COc1ccc(C=NNc2cc(C)nc3ccc(OC)cc23)c(OC)c1	7.69
C=CCNC(=O)c1cc2c(=O)n3ccccc3nc2n(CCc2ccccc2)c1=N	15.4
Cn1c(SCC2CCCO2)nnc1C1CCN(C/C=C/c2ccccc2)CC1 (stereo not given)	1.71
FC(F)(F)c1cccc(CNC2CCN(CCc3ccccc3)CC2)c1	1.61
CC(C)c1ccc(C=NNC(=O)c2ccccc2O)cc1	0
Fc1ccccc1CCNc1ncnc2c1[nH]c1ccccc12	12.5
CC(Oc1ccc(Cl)cc1Cl)c1nc(-c2ccc(NC(=O)c3cccs3)cc2)no1 (stereo not given)	4.62
COc1ccc2nc3cc(Cl)ccc3c(NCCCN(CCCN)CCCCN)c2c1	2.91
CCC(C)(C)c1ccc(OCCCC[n+]2cccc(C)c2C)c(C(C)(C)CC)c1	8.7
C=CCc1c(C)nc2ccccc2c1O	3.08
CCCCCOC(=O)C1=C(C)Nc2ncnn2C1c1cccc([N+](=O)[O-])c1 (stereo not given)	0
CCOc1ccc(C(=O)C(C)[n+]2cc(-c3ccc(Cl)cc3)n3c2CCC3)cc1 (stereo not given)	5.41
CCOc1ccccc1NC(=O)C1C(c2ccccc2)=C1c1ccccc1	0
CC(=O)c1ccc(OCCSc2nc3c(N)ncnc3[nH]2)cc1	0
COc1cc(C2C(C(=O)OCCc3ccccc3)=C(C)NC3=C2C(=O)CC(c2ccc(Cl)cc2)C3)ccc1OCc1ccccc1 (stereo not given)	4.54
COc1ccc(OC)c(-c2ccc(O)c(CNCCc3ccccc3)c2)c1	0.848
